Some of the results follow. The list includes weakly bound sequences.

This test has as its target T1, MBP-FoxP3dN (UniProt Q99JB6).
T1 sequence: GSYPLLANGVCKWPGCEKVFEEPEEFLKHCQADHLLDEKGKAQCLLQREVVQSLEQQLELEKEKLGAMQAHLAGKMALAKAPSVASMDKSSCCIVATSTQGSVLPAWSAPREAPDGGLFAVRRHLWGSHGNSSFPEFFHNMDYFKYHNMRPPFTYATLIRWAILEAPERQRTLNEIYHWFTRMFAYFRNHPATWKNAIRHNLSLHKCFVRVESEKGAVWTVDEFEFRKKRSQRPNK
Briefly: PD-seq (MBP pull-down with sequencing). As to conditions: 20 mM Tris-HCl pH 7.5, 100 mM NaCl, 1.5 mM MgCl2, 0.4 uM protein, 0.1 uM dsDNA library, 30 min, room temperature, amylose pull-down; high values mean tight binding; double strand, one strand shown.
In the case of “GATGATTGTTCTCCCAGCTGATGAATTCACGATGTCGAGTAAACAAATTTTCCTAATCTTTCTGTTCAAGCGCCATCTAC”, the binding signal (RPM ratio (pull-down/input)) turned out to be 0.352.

“GATGATTGTTCTCCCAGCTGATGAATTGGACCAATCGAGTAAACAAATTTTCCTAATCTTTCTGTTCAAGCGCCATCTAC”: the binding signal (RPM ratio (pull-down/input)) came out at 0.296.

Consider “GATGATTGTTCTCCCAGCTGATGAATTGGATGGATCGAGTAAACAAATTTTCCTAATCTTTCTGTTCAAGCGCCATCTAC”, for which the binding signal (RPM ratio (pull-down/input)) is 0.356.

For the sequence “GATGATTGTTCTCCCAGCTGATGAATTCAGGCAGTCGAGTAAACAAATTTTCCTAATCTTTCTGTTCAAGCGCCATCTAC”, the binding signal (RPM ratio (pull-down/input)) worked out at 0.389.

Take “GATGATTGTTCTCCCAGCTGATGAATTTGGAGCTTCGAGTAAACAAATTTTCCTAATCTTTCTGTTCAAGCGCCATCTAC”: the binding signal (RPM ratio (pull-down/input)) is 0.353.

As for “GATGATTGTTCTCCCAGCTGATGAATTTGGCGTCTCGAGTAAACAAATTTTCCTAATCTTTCTGTTCAAGCGCCATCTAC”, the binding signal (RPM ratio (pull-down/input)) was 3.82.

On to “GATGATTGTTCTCCCAGCTGATGAATTCTAAGGGTCGAGTAAACAAATTTTCCTAATCTTTCTGTTCAAGCGCCATCTAC”, for which the binding signal (RPM ratio (pull-down/input)) came to 0.213.

For “GATGATTGTTCTCCCAGCTGATGAATTAACTTTATCGAGTAAACAAATTTTCCTAATCTTTCTGTTCAAGCGCCATCTAC”, the binding signal (RPM ratio (pull-down/input)) came out at 0.445.

On to “GATGATTGTTCTCCCAGCTGATGAATTAAGTAAGTCGAGTAAACAAATTTTCCTAATCTTTCTGTTCAAGCGCCATCTAC”, for which the binding signal (RPM ratio (pull-down/input)) was 0.454.

Regarding “GATGATTGTTCTCCCAGCTGATGAATTCCCCCTCTCGAGTAAACAAATTTTCCTAATCTTTCTGTTCAAGCGCCATCTAC”, the binding signal (RPM ratio (pull-down/input)) is 0.229.

Consider “GATGATTGTTCTCCCAGCTGATGAATTGCTGCCGTCGAGTAAACAAATTTTCCTAATCTTTCTGTTCAAGCGCCATCTAC”, for which the binding signal (RPM ratio (pull-down/input)) turned out to be 0.73.

For “GATGATTGTTCTCCCAGCTGATGAATTGAGGTGGTCGAGTAAACAAATTTTCCTAATCTTTCTGTTCAAGCGCCATCTAC”, the binding signal (RPM ratio (pull-down/input)) came out at 0.405.

With “GATGATTGTTCTCCCAGCTGATGAATTATGATTTTCGAGTAAACAAATTTTCCTAATCTTTCTGTTCAAGCGCCATCTAC”, the binding signal (RPM ratio (pull-down/input)) came out at 1.8.

Regarding “GATGATTGTTCTCCCAGCTGATGAATTTTAGCATTCGAGTAAACAAATTTTCCTAATCTTTCTGTTCAAGCGCCATCTAC”, the binding signal (RPM ratio (pull-down/input)) came to 5.97.

Regarding “GATGATTGTTCTCCCAGCTGATGAATTCTTGCTTTCGAGTAAACAAATTTTCCTAATCTTTCTGTTCAAGCGCCATCTAC”, the binding signal (RPM ratio (pull-down/input)) amounted to 0.735.

For the sequence “GATGATTGTTCTCCCAGCTGATGAATTCCAGACGTCGAGTAAACAAATTTTCCTAATCTTTCTGTTCAAGCGCCATCTAC”, the binding signal (RPM ratio (pull-down/input)) is 0.227.

Consider “GATGATTGTTCTCCCAGCTGATGAATTCGCTGGGTCGAGTAAACAAATTTTCCTAATCTTTCTGTTCAAGCGCCATCTAC”, for which the binding signal (RPM ratio (pull-down/input)) came to 0.495.

In the case of “GATGATTGTTCTCCCAGCTGATGAATTGTCTCGATCGAGTAAACAAATTTTCCTAATCTTTCTGTTCAAGCGCCATCTAC”, the binding signal (RPM ratio (pull-down/input)) was found to be 0.345.

Regarding “GATGATTGTTCTCCCAGCTGATGAATTGGGATAATCGAGTAAACAAATTTTCCTAATCTTTCTGTTCAAGCGCCATCTAC”, the binding signal (RPM ratio (pull-down/input)) came to 0.392.

With “GATGATTGTTCTCCCAGCTGATGAATTCGTCGGGTCGAGTAAACAAATTTTCCTAATCTTTCTGTTCAAGCGCCATCTAC”, the binding signal (RPM ratio (pull-down/input)) amounted to 0.574.

Take “GATGATTGTTCTCCCAGCTGATGAATTGATAGGTTCGAGTAAACAAATTTTCCTAATCTTTCTGTTCAAGCGCCATCTAC”: the binding signal (RPM ratio (pull-down/input)) stood at 0.509.

Regarding “GATGATTGTTCTCCCAGCTGATGAATTATCAATTTCGAGTAAACAAATTTTCCTAATCTTTCTGTTCAAGCGCCATCTAC”, the binding signal (RPM ratio (pull-down/input)) came out at 0.375.

On to “GATGATTGTTCTCCCAGCTGATGAATTAGACTTGTCGAGTAAACAAATTTTCCTAATCTTTCTGTTCAAGCGCCATCTAC”, for which the binding signal (RPM ratio (pull-down/input)) turned out to be 0.529.

Regarding “GATGATTGTTCTCCCAGCTGATGAATTCGTAACGTCGAGTAAACAAATTTTCCTAATCTTTCTGTTCAAGCGCCATCTAC”, the binding signal (RPM ratio (pull-down/input)) is 0.534.

With “GATGATTGTTCTCCCAGCTGATGAATTCATTTCCTCGAGTAAACAAATTTTCCTAATCTTTCTGTTCAAGCGCCATCTAC”, the binding signal (RPM ratio (pull-down/input)) stood at 0.768.

“GATGATTGTTCTCCCAGCTGATGAATTTGACATGTCGAGTAAACAAATTTTCCTAATCTTTCTGTTCAAGCGCCATCTAC”: the binding signal (RPM ratio (pull-down/input)) was found to be 1.81.

Turning to “GATGATTGTTCTCCCAGCTGATGAATTAAAATCATCGAGTAAACAAATTTTCCTAATCTTTCTGTTCAAGCGCCATCTAC”, the binding signal (RPM ratio (pull-down/input)) is 0.424.

“GATGATTGTTCTCCCAGCTGATGAATTTCGACGTTCGAGTAAACAAATTTTCCTAATCTTTCTGTTCAAGCGCCATCTAC”: the binding signal (RPM ratio (pull-down/input)) was 0.582.

Turning to “GATGATTGTTCTCCCAGCTGATGAATTGGTATACTCGAGTAAACAAATTTTCCTAATCTTTCTGTTCAAGCGCCATCTAC”, the binding signal (RPM ratio (pull-down/input)) stood at 3.5.

“GATGATTGTTCTCCCAGCTGATGAATTGCGGTTATCGAGTAAACAAATTTTCCTAATCTTTCTGTTCAAGCGCCATCTAC”: the binding signal (RPM ratio (pull-down/input)) stood at 1.49.

For the sequence “GATGATTGTTCTCCCAGCTGATGAATTACATCGTTCGAGTAAACAAATTTTCCTAATCTTTCTGTTCAAGCGCCATCTAC”, the binding signal (RPM ratio (pull-down/input)) worked out at 0.715.

As for “GATGATTGTTCTCCCAGCTGATGAATTACAGGCATCGAGTAAACAAATTTTCCTAATCTTTCTGTTCAAGCGCCATCTAC”, the binding signal (RPM ratio (pull-down/input)) worked out at 0.916.

Values taken from PMC12820563.
